In the supplement of paper PMC4466236:
The full ranking holds about 33,000 sequences; the median of “E-score (dimensionless, -0.5 to 0.5)” is about -0.058, and the highest 2% start at about 0.35. This is one part of the list.

system: MvaT; experiment: PBM 8-mer E-score (mean of HK and ME arrays) (E-score (dimensionless, -0.5 to 0.5)); higher = stronger relative binding preference; most listed sequences are background and not binding sites
Outline: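 Reported values are rank-based E-scores, taken as the mean of two universal arrays and parsed with a custom script. Each 8-mer score falls between -0.5 and 0.5. The arrays, ME and HK, were double-stranded 60-mers with a constant 25-mer primer region and a variable 35-mer region covering all 8-mers. They were probed, by an earlier protocol, with full-length P. aeruginosa MvaT carrying an N-terminal glutathione S-transferase fusion.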

| Sequence | PBM 8-mer E-score |
| --- | --- |
| GAGCAGGA | -0.212 |
| GTTCGCTA | -0.0375 |
| ATTCATGC | 0.0176 |
| ACCCTGAA | -0.163 |
| AGCAACGA | -0.24 |
| GATCAACC | -0.124 |
| TAAGAACA | 0.123 |
| ACACAGTG | -0.0714 |
| GTTCTTTA | 0.215 |
| AAGGGTGG | -0.125 |
| ATTGAGGA | 0.0686 |
| TCTAATAA | 0.332 |
| ACGTATGC | -0.154 |
| AGCCACCA | -0.0502 |
| ATATATAG | 0.468 |
| AGGCTTCA | -0.201 |
| ATGTTCCA | 0.0835 |
| CCTAGAAG | -0.263 |
| CTGAATTC | 0.0246 |
| ACTCTGGA | -0.0765 |
| GCTACCAA | -0.0936 |
| GCCGCGCC | -0.218 |
| AGATAGTG | 0.0848 |
| ACTGGAGG | -0.186 |
| GCCTCGAA | -0.0962 |

| Sequence | PBM 8-mer E-score |
| --- | --- |
| TAGGCCTA | -0.152 |
| GCGTTGCA | -0.143 |
| AAAGCCTG | -0.0913 |
| ATAGGGAC | -0.0932 |
| CTAAACCA | 0.162 |
| ATATCATC | 0.216 |
| ACTGCGCT | -0.0936 |
| TCGTACCA | 0.0456 |
| ACGGATTA | 0.208 |
| AATGTGAA | 0.198 |
| CCAGTCTC | -0.0808 |
| AACCTCAC | -0.0716 |
| CCACCACG | -0.234 |
| GCCAAGCC | -0.261 |
| ATTACAGA | 0.217 |
| AAGAAGTG | 0.0962 |
| ATACGTAC | 0.0574 |
| CGTTCATC | -0.232 |
| CAAGGTAC | -0.151 |
| CATGTCTC | 0.00179 |
| GGTGGCAA | -0.164 |
| AGAGTTGG | -0.128 |
| CAACGTAA | 0.135 |
| ATAATTGC | 0.325 |
| CGATAAGA | 0.0173 |

| Sequence | PBM 8-mer E-score |
| --- | --- |
| CGTCTGAG | -0.303 |
| CTACTGAA | -0.0994 |
| TACTTCAA | 0.303 |
| CGGGCAAG | -0.202 |
| GTCGGGAA | -0.158 |
| CCCCCGTA | -0.247 |
| CCTACCTC | -0.226 |
| CTATATTA | 0.454 |
| ATGACCCA | -0.0872 |
| CCCATAGC | -0.288 |
| CCAAATTC | 0.0865 |
| ATTGTAGG | 0.0643 |
| CCCTGGAG | -0.214 |
| AGGGGACA | -0.227 |
| AAGTGTAC | 0.0796 |
| GGTTGAAA | -0.0519 |
| GTGATTGA | -0.0771 |
| CGCAAACC | -0.0277 |
| AGGAGTTC | -0.0442 |
| AACTTCAG | 0.158 |
| ACCTGCTG | -0.164 |
| AAGGAAGA | -0.104 |
| AAACCCGA | -0.0944 |
| AGGCATGC | -0.194 |
| CGCGAGAC | -0.168 |

| Sequence | PBM 8-mer E-score |
| --- | --- |
| CCCATGTA | 0.0488 |
| TAGTGTAA | 0.277 |
| TATGCCCA | -0.013 |
| AAATGCAC | 0.0514 |
| ATCAAGTG | 0.0346 |
| GAGATAGA | -0.119 |
| TCCATGGA | -0.00256 |
| GGCCTCTA | -0.166 |
| CCATATTA | 0.353 |
| CATTGGAA | 0.0265 |
| ACCATCAG | -0.267 |
| ACTTCACC | 0.118 |
| AGCTTATA | 0.307 |
| CCCTGAGC | -0.354 |
| ACTATAGG | 0.061 |
| CGGGGGAC | -0.256 |
| CAAAGTAG | 0.0209 |
| AATCTCCA | -0.137 |
| GAGCCCAC | -0.135 |
| CCTGAACA | -0.0362 |
| ACGGTGGA | -0.17 |
| CCTAAGTC | -0.0334 |
| AGTGAAAT | 0.14 |
| GACTTCTA | 0.0115 |
| AGGCAGAC | -0.265 |

| Sequence | PBM 8-mer E-score |
| --- | --- |
| ACTCGACT | -0.137 |
| GGGCGTAA | -0.0897 |
| CTGGCCTC | -0.0945 |
| CCTCTAAG | -0.0409 |
| ACGCTTTC | -0.237 |
| CTGGCATC | -0.181 |
| AGGGCCTA | -0.21 |
| AATGTGCT | 0.00812 |
| TCCGGTCA | -0.221 |
| AATCCGCA | -0.00627 |
| AAGGTATC | -0.0527 |
| CTGGCGTA | -0.155 |
| CTATGGTC | -0.227 |
| ATCGGGTG | -0.109 |
| CTGCCCCA | -0.23 |
| ATACACGC | 0.117 |
| AACACAAT | 0.256 |
| ATTGTACG | 0.164 |
| GTCCAGTA | -0.138 |
| GAAACTAA | 0.284 |
| GCTATGAA | 0.0436 |
| AAGGGCCA | -0.254 |
| CGCGCAAA | 0.146 |
| ACTCCTAA | 0.0405 |
| ACTGCGTA | -0.128 |

| Sequence | PBM 8-mer E-score |
| --- | --- |
| ATAACATA | 0.359 |
| CGCCCGAG | -0.184 |
| CTGGGTAA | 0.119 |
| TCCACTAA | 0.149 |
| AGCGTCGA | -0.12 |
| CAAACAGC | -0.0107 |
| GGTTGGAC | -0.169 |
| CGACGGTC | -0.222 |
| AAGTGCTA | 0.0298 |
| AGCTTTCA | -0.141 |
| ACCCCGAT | 0.00518 |
| AATGGCCA | -0.0193 |
| GCTGCATA | -0.0612 |
| GATCATGA | -0.0896 |
| CTCATCAC | -0.181 |
| TGGCTACA | -0.143 |
| CAAACAAA | 0.0286 |
| AAGGGAGA | -0.206 |
| CACCTTGC | -0.0983 |
| CACTACCG | -0.101 |
| CCGGCTGA | -0.25 |
| GGGGCGTA | -0.169 |
| CCAGCTCA | -0.0499 |
| ACTTTGTC | 0.0551 |
| ACCATTCA | 0.0275 |

| Sequence | PBM 8-mer E-score |
| --- | --- |
| ACAGCCGC | -0.211 |
| CAACGCGG | -0.167 |
| ATTGACCG | -0.00731 |
| CCCAGATA | -0.0766 |
| ATCTTATA | 0.238 |
| ACAAGCCG | -0.202 |
| GAACACGA | -0.0165 |
| GGTTCAAC | -0.0691 |
| AAGATAGT | 0.197 |
| TCGACACA | -0.176 |
| ATAGAGTA | 0.152 |
| GGTGCGAA | -0.0873 |
| CACTACTG | 0.065 |
| AATAACAA | 0.38 |
| GAAGGCCA | -0.3 |
| CCAAGCCA | -0.218 |
| AAGAAAAG | 0.114 |
| TCGTACAA | 0.0784 |
| TTGCCAAA | 0.161 |
| AACCCTGA | -0.198 |
| TACAAACA | 0.323 |
| CATGCCTA | -0.0489 |
